From PubChem BioAssay AID1476 (National Center for Advancing Translational Sciences (NCATS), 2009)
Among all 200,000 compounds or so, about 4,500 (2.2%) were called active. Inconclusive means that the source gave no clear call. Such entries were picked first, then a sample of the others. Calls come from the whole dose curve; as a rule, active = well fitted inhibition curve with a large enough effect; inconclusive = small, poorly fitted or top-dose-only effect, or effect the other way; inactive = flat fitted curve, though single readings scatter. Potencies of inconclusive entries are doubtful fits and often do not repeat.

Biological target: Cruzipain (Trypanosoma cruzi) (UniProt P25779)
UniProt P25779, sequence (P25779 whole entry, looked up): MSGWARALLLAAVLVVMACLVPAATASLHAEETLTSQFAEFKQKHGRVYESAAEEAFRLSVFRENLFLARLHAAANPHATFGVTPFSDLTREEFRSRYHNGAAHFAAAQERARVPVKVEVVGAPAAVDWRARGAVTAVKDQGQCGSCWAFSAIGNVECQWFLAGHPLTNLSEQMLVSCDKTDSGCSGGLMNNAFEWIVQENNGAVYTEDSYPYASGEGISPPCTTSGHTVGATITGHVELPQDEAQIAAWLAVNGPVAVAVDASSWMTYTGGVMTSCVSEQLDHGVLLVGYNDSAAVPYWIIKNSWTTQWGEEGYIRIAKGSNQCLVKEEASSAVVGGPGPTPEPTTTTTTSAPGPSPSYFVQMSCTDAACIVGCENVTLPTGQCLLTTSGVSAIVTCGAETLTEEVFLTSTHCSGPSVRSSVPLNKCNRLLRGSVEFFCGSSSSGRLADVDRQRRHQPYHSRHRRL
Test: qHTS Assay for Promiscuous and Specific Inhibitors of Cruzain (without detergent); note: nearly all actives have a fitted effect of over 40% in size;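 for max response, negative = inhibition: plate controls were enzyme without inhibitor for no effect and buffer without enzyme for full effect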
Settings: purified cruzain, Z-FR-AMC fluorescence, no detergent
Summary of the method: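 Purified cruzain at 1.5 nM, pre-incubated 15 min with compound at room temperature in 100 mM sodium acetate pH 5.5, 5 mM DTT, 0.00005% Triton X-100. Reaction started with 2 uM Z-FR-AMC; AMC fluorescence increase over 60 s gives rate.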
Potency is the fitted concentration of half-maximal effect; tags give direction and shape of the fitted curve.

SMILES	Potency	max response, negative = inhibition
CCOC(=O)c1cccc(NC(=O)c2cc3cc4cc(OC)ccc4nc3s2)c1	inconclusive: 31.6 µM [inhibitor, single point]	
CCn1cnc2c(Nc3cccc(Cl)c3)nc(N[C@@H]3CCCC[C@@H]3N)nc21		inactive: 8.57%
CCOC(=O)c1sc(NC(=O)C(C)Oc2ccc(OC)cc2)c(C(=O)OCC)c1C (stereo not given)		inactive: 6.75%
Cc1csc(NC(=O)CSc2nnc(Cc3cccn3C)n2-c2ccc(F)cc2)n1	inconclusive: 39.8 µM [activator, single point]	
CCOCCCNC(=O)c1cc2c(=O)n(C)c3ccccc3c2n1C		inactive: -10.6%
Cc1ccc(C)c(NC(=O)NCc2ccc(Cl)cc2)c1		inactive: -5.74%
Cc1cc(C(=O)CSc2nc(N)cc(=O)[nH]2)c(C)n1-c1cccc(F)c1	inconclusive: 20 µM [inhibitor, single point]	
Cc1cc(C)c(NC(=O)C(C)OC(=O)c2cc(Br)c(Br)s2)c(C)c1 (stereo not given)	active: 25.1 µM	
O=C(CN1C(=O)CCC1=O)Nc1nc(-c2nc3ccccc3s2)cs1	inconclusive: 39.8 µM [inhibitor, single point]	
COc1ccc(-c2nc3ccccc3o2)cc1NC(=O)C(C)(C)Oc1ccc(Br)cc1		inactive: -5.91%
COCc1nc(-c2ccc(-c3ccc(C)cc3)nc2OC)no1	inconclusive: 39.8 µM [activator, single point]	
O=c1oc2ccc3ccccc3c2cc1-c1nnc(Nc2ccc(Cl)cc2Cl)s1		inactive: 5.78%
O=C(Nc1ccc(Cl)cc1)Nc1nnc(CSCc2ccccc2Cl)s1	active: 6.31 µM	
NS(=O)(=O)c1ccc(CCN2C(=O)/C(=C\c3ccc(Cl)cc3)SC2=S)cc1	active: 25.1 µM	
C1CCN(c2nc(N3CCCCC3)nc(N3CCNCC3)n2)CC1		inactive: 5.92%
Cc1c(C(=O)NCc2ccoc2)oc2ccc3c(c12)C(=O)CC(C)(C)O3	inconclusive: 10 µM [inhibitor, partial curve, poor fit]	
COc1ccc(C(C)=O)cc1CSc1nnc(Nc2ccc(C)cc2)s1	inconclusive: 31.6 µM [inhibitor, single point]	
CC(C)(C)c1ccc(OCC(=O)N/N=C/c2cc(Br)ccc2OC(=O)c2ccco2)cc1	inconclusive: 3.98 µM [inhibitor, full curve, poor fit]	
N#CCC(=N)N1CCN(c2cccc(Cl)c2)CC1	active: 12.6 µM	
CCOc1ccc(NC(=O)CSC2=Nc3ccccc3C3=NC(CCC(=O)NCc4cccs4)C(=O)N23)cc1 (stereo not given)		inactive: -3.48%
COc1ccc(C(C2C(=O)CC(C)(C)CC2=O)C2C(=O)CC(C)(C)CC2=O)cc1COCC(F)(F)F	inconclusive: 39.8 µM [activator, single point]	
CCCN(CCC)C(=O)C1CCN(c2cc(C)nc3c(-c4ccc(OC)c(OC)c4)c(C)nn23)CC1	inconclusive: 20 µM [activator, partial curve]	
O=C(CN1CCN(S(=O)(=O)c2ccc3ccccc3c2)CC1)Nc1ccc(N2CCOCC2)cc1	inconclusive: 39.8 µM [activator, single point]	

SMILES	Potency	max response, negative = inhibition
COc1cc(N)c(Cl)cc1C(=O)N[C@H]1CCN(CCCOc2ccc(F)cc2)C[C@@H]1OC		inactive: 29.3%
CCC(=O)N1CCc2cc(S(=O)(=O)NCCC(=O)NC(C)c3ccccc3)ccc21 (stereo not given)		inactive: 0.666%
COc1ccc(/C=C/c2nc(-c3ccccc3O)n(-c3ccccc3)n2)cc1OC	inconclusive: 39.8 µM [activator, single point]	
CC1CCN(C(=O)CN2CCSc3ccc(S(=O)(=O)N(C)C)cc32)CC1		inactive: 8.02%
Cc1cc(C)nc(N2CCC(C(=O)Nc3ccc(Oc4ccccc4)cc3)CC2)n1	inconclusive: 39.8 µM [inhibitor, single point]	
Cn1c(=O)c2c(ncn2CN2CCN(Cn3cnc4c3c(=O)n(C)c(=O)n4C)CC2)n(C)c1=O		inactive: 3.97%
Nc1nc(-c2cccs2)c(NC(=O)c2ccccc2)s1		inactive: 0.569%
O=C(C1CCN(S(=O)(=O)c2cccc3nonc23)CC1)N1CCN(c2ccc(F)cc2)CC1	inconclusive: 25.1 µM [activator, single point]	
O=C(CSc1nc2ccccc2o1)N1N=C(c2cccs2)CC1c1ccc(F)cc1 (stereo not given)	inconclusive: 39.8 µM [inhibitor, single point]	
N=C(N)SCc1cc(Cl)cc(Cl)c1O		inactive: -1.07%
Clc1ccc(Cl)c2sc(N3CCCC3)nc12	inconclusive: 31.6 µM [activator, single point]	
CC(=O)N1CCN(c2nc3cc4c(cc3nc2NS(=O)(=O)c2ccccc2)OCCO4)CC1	inconclusive: 39.8 µM [activator, single point]	
Cc1cccc(OCC(=O)OCc2cc(=O)n3nc(C4CC4)sc3n2)c1		inactive: -4.05%
O=C(CCC(=O)N1CC2CCCN2c2ccccc21)NCc1ccccc1F (stereo not given)		inactive: 19.1%
CCOC(=O)CC(NC(=O)c1cc2cc(OC)ccc2oc1=O)c1ccc(OC)cc1 (stereo not given)		inactive: 12.8%
COc1cccc2c1OC[C@@H](CO)[C@H]2N(C)C(=O)Nc1ccc(Cl)cc1Cl	inconclusive: 39.8 µM [activator, single point]	
C=CCNC(=O)COC(=O)c1oc2ccccc2c1CSC1CCCCC1	inconclusive: 3.16 µM [inhibitor, single point]	
CCCCCCCCCCCCCCCCOC[C@H](COP(=O)([O-])OCC[N+](C)(C)C)OC(=O)NC	inconclusive: 31.6 µM [activator, single point]	
CCOC(=O)Cc1c(C)nc2c(-c3ccc(OC)c(OC)c3)c(C)nn2c1C	inconclusive: 39.8 µM [activator, single point]	
COc1ccccc1OCCCn1c(-c2ccc(Cl)cc2)nc2ccccc2c1=O		inactive: 3.21%
C=CCC(C)(O)c1cccc(Br)c1 (stereo not given)		inactive: 13.8%
O=C(NCc1cccs1)Nc1cccs1	inconclusive: 25.1 µM [inhibitor, partial curve]	
